In the supplement of paper PMC11417369:
Some of the results follow.

Each sequence was assayed on PfHDP1 homeodomain (GST-tagged) (assay: gcPBM binding intensity (ln(normalized median fluorescence intensity)); higher = stronger DNA binding).
Summary of the method: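 The binding buffer was 1× PBS containing 1% milk, 0.2 mg/ml BSA, 0.5% salmon testes DNA and 0.03% Triton X-100. In it, GST-tagged P. falciparum DNA-binding domains expressed in E. coli were applied for 1 h to an Agilent 4 × 180k array of primer-extended double-stranded 36-bp intergenic genomic probes plus negative controls. Binding intensity, read with Alexa488 anti-GST antibody and a 488 nm scan, is the highest Masliner-normalised natural-log median intensity across replicate spots of either probe orientation.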

| Sequence | gcPBM binding intensity (ln) |
| --- | --- |
| AAAAAATCACGACACACACACACACTAAAAAAAAAA [CACACA_site6792] | 6.76 |
| ATCAAATAATAGCAAACACACAAAAAATAAAAAAAA [CACACA_site4146] | 6.33 |
| AATGTTTTTTTTTTTTTTTTTTTTTATTTATTGTTA [CACACA_negctrl_site505] | 6.1 |
| ATTTTTTGGAAAAGAAGTACAATGGATTTATACGTT [XGTACX_site891] | 6.19 |
| TAACATATAATATTATGTACATATATACATATATAA [XGTACX_site7467] | 6.33 |
| TATAACATAATATAGACACACACATGTACTTATGCC [CACACA_site8547] | 6.37 |
| CACTACATTATGTCATAAATGCATACATAAACATAT [GTGCAC_negctrl_site513] | 6.66 |
| TTTATATTTCAATTTTGTGCTTCGCAAATTGAGAGG [TGCATGCA_negctrl_site327] | 6.13 |
| TATTTGTTTGAATTTTTTTTTTTTTTTTTTTATGTG [CACACA_negctrl_site966] | 5.89 |
| TACAGACAGAAATGCACACACATATATATATATATA [CACACA_site2283] | 9.96 |
| GAAAAGCATAGATGCACACATATATATATATATATA [CACACA_site2169] | 9.77 |
| GTGTTAATTTTAAATTGTACAAAATTTATATGATTT [XGTACX_site348] | 6.4 |
| ATTTTTATACGTTTTTTTTTTTTTTTTTTTTATTTA [CACACA_negctrl_site1142] | 6.05 |
| ATTAATTTTGGTTCATGTACATAAGAAATAAACTCT [XGTACX_site4534] | 6.48 |
| TTACACATATATATAAATATATATAAATATATATAT [CACACA_negctrl_site150] | 7.39 |
| AAAATATATGAAAACAGTACATATAAAAATTAAAAA [XGTACX_site2594] | 6.41 |
| ATATACTTTTTTTTTTTTTTTTTAACGTTATTTATG [CACACA_negctrl_site1277] | 6.13 |
| AAGAAAGACATTACGTGTACCAAACAACCTACCAAC [XGTACX_site4219] | 6.79 |
| AAAATTAAACTCACACCACACACAAAAAAAAAAAAA [CACACA_site8131] | 6.32 |

| Sequence | gcPBM binding intensity (ln) |
| --- | --- |
| ATGTATATGTCTATATGTACTTATATTTTATTTTTT [XGTACX_site5902] | 6.17 |
| TGTTTTATCTTATATGCACACGATAAAAAAAAAAAA [CACACA_site2674] | 9.7 |
| TTACAAGTAAAAGGTACACACATTATAAATACAAAT [CACACA_site4752] | 6.93 |
| ATATATTTTAATTGTTGTACATATTAAATAAATAGG [XGTACX_site2311] | 6.54 |
| ATTTTTTTTTTTTATAGTGGATCCACATTTGCCATT [CACACA_negctrl_site1284] | 6.47 |
| TATATTTTATATATGGTGCAACTTTTATTTAAATAA | 10.7 |
| ACATAAATATAAACGTGTACATATATAAATATATAT [XGTACX_site7293] | 6.5 |
| CATATATAAAAAAACACACACATATATATATATATA [CACACA_site1195] | 9.25 |
| CCCACAGACGGACACACACACACACCGACACATATA [CACACA_site4356] | 7.01 |
| TTTTGTGCTTAAAAAAGTACAAAATATAAAAAAAAT [XGTACX_site7876] | 6.47 |
| TGCAGTCTGGAGAAACGTACACAGTATCTGGTAACC [XGTACX_site2543] | 6.02 |
| TTCTATTTTAATATCTGTACATAATAAAGATCCATT [XGTACX_site1142] | 6.3 |
| AAAATTGAACCTGACAAGGTATTTTATTATTTATTA [TGCATGCA_negctrl_site181] | 5.78 |
| AGTTTTTATAAAAATAGTACATATTTATTAATCTGT [XGTACX_site5881] | 6.06 |
| CATTATTCATTTTGGATGCACTGACAGAAAAATGGT | 7.62 |
| ATGCTCAGGAAAACATGTACAAAATTATTTGTTATA [XGTACX_site4306] | 6.36 |
| TGAGTACACAATAATACATGCAATTCCTATGAATAT [TGCATGCA_site851] | 6.72 |
| ATAAATATTAAAAGTACACACAGATACACTAATTAT [CACACA_site1808] | 6.79 |
| ATATGACATAAAACATGTACATGTTCATAAATATAT [XGTACX_site1923] | 6.71 |

| Sequence | gcPBM binding intensity (ln) |
| --- | --- |
| TACACTTTTTATGAAGTGCATGTATAGCTCTTAAAA [GTGCAC_site9595] | 7.25 |
| ATTTACATAATAAAATGTACATTTATAAATATTATA [XGTACX_site1901] | 6.36 |
| ATAAACATATAAAAAGTGCATATTCATATATCTACT | 6.98 |
| AATACACTAAACAAAAGTACAAAAATATTCTACAAA [XGTACX_site5162] | 6.22 |
| ATGGCCTCATTTGGGACACACAACATAAAATATATA [CACACA_site753] | 6.65 |
| AAATATATTTTATGTACACACAAAATTAAGGGATAT [CACACA_site4881] | 6.75 |
| TGTTAATTATAAATTTGTACTTATTTTTACAAAATA [XGTACX_site6598] | 6.48 |
| TTATAATAATATAATACATGCATATATATTTAAATA [TGCATGCA_site903] | 6.6 |
| AATTTAATATAATGCACACATAAAACAAAAACAAAA [CACACA_site529] | 10.5 |
| TATTATCGTTCTCATACACACAAAATATACATACAC [CACACA_site2643] | 7.05 |
| TACGTAAATGTGTGTGTGCACGTTATATATTAATAT [GTGCAC_site9976] | 9.38 |
| CATTTTTTATTTCCTTGTACGAATAAAATATATTTA [XGTACX_site6844] | 6.69 |
| AAAAAAAAAAAAAACATACACACAATAAAATAGGGG [CACACA_site2398] | 6.84 |
| ATATAATAATAAAGACGTACAAATGTATATATATAC [XGTACX_site3123] | 7.02 |
| ATGTAAGTTGTGCATTCACACACATATATATATATA [CACACA_site9086] | 9.58 |
| ATTTTTTTTTTTTTTTTTTTTTTATTCTTGTAATCT [CACACA_negctrl_site1039] | 5.84 |
| GAATATTAATTCATACGTACTTATATATAAGTATAT [XGTACX_site3707] | 6.39 |
| AAAATGAATAAAAATACACACATATCTGTTATTCTC [CACACA_site5474] | 6.33 |
| TCACTATAATAATTTACACACATTTTAAGAAAATGT [CACACA_site3530] | 6.61 |
